Experimental data: the RNAGym collection of RNA variant scans (doi:10.1101/gad.245936.114)
This sample is rich in variants without activity.

B1: tRNA (parent)
chain: CUCUCGGUAGCCAAGUUGGUUUAAGGCGCAAGACUUUAAUUUAUCACUACGAAAUCUUGAGAUCGGGCGUUCGACUCGCCCCCGGGAGAUUUUUUCCUCGAGCAA

Variants of: B1
Experiment: nonsense suppression (GFP-seq) (ratio to wild type); higher = more function; SUP4oc tRNA, yeast GFP reporter sort-seq
Outline: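 Yeast carrying genome-integrated SUP4oc tRNA variants from a library with ~3% random mutations were grown in raffinose/galactose medium with 80 mg/L adenine. Each strain also carried a galactose-driven GFP ochre reporter and RFP. Cells were sorted into GFP/RFP bins, and each bin was Illumina-sequenced (phred ≥30). Nonsense suppression (GFPSEQ) is the bin median GFP/RFP, weighted by each variant's estimated cell share per bin, relative to wild-type SUP4oc; variants needed ≥100 reads and ≥30 cells.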

Nonsense suppression, ≤ 0.026:
CUCUCGGUAGCCAAGUUGCUUUAAGGCGCAAGACUUUAAUUUAUCACUACGAAAUCUUGAGAUCGGGCGUUCGACUCGCCCCCGGGUGAUUUUUUCCUCGAGCAA [G19C A87U]
CUCUCGGUAGCCAAGUUGAUUUAAGGCGGAAGACUUUAAUUUAUCACUACGAAAUCUUGAGAUCGGGCGGUCGACUCGCCCCCGUGAGAUUUUUUCCUCGAGCAA [G19A C29G U70G G85U]
CUCUCGGUAGCCAAGUUGCUUUAAGGGGCGAGACUUUAAUUUAUCACUACGAAAUCUGGAGAUCGGGCGUCCGACUCGCCCCCGGGAGAUUUUUUCCUCGAGCAA [G19C C27G A30G U58G U71C]
CUCUCGGUAGCCAAGUUGAUCUACGGCGCAAUACUUUAAUUUAUCACUACGAAAUCUUGAGAUCGGGCGUUCGACUCGCCCCCGGGAGAUUUUUUCCUCGAGCAA [G19A U21C A24C G32U]
CUCUCGGUAGCCAAGUUGAUUUAAGGCGCAAGACUUUAAUUUAUCACUACGAAAUCUUGAGAUCGGGCGUUCGACUCGCCCCCGCGAGAUUUUUUCCUCGAGCAA [G19A G85C]
CUCUCGGUAGCCAAGUUGAUUUAAAGGGCAAGACUUUAAUUUAUCACUACGAAAUCUUGAGAUCGGGCGUUCGACUCGCCCCCGGGAGAUUUUUUCCUCGAGCAA [G19A G25A C27G]
CUCUCGGUAGCCAAGUUGCUUUAAGGCGCAAGACUUUAAUUUAUCACUACGAAAUCUUGGGAUCGGGCGUUCGACUCGCCCCCGGGAGAUUUUUUCCUCGAGCAA [G19C A60G]
CUCUCGGUAGCCAAGUUGAUUUAAGGCGCAAGACUUUAAUUUAUCACUACGAAAUCUUGAGAUCGGGCGUUCGACUGGCCCCCGGGAGAUUUUUUCCUCGAGCAA [G19A C77G]
CUCUCGGUAGCCAAGUUGAUUUAAGGCGCAAGACUUUAAUUUAUCACUACGAAAUCUUGAGAUCGGGCGUUCGACUUGCCCCCGGGAGAUUUUUUCCUCGAGCAA [G19A C77U]
CUCUCGGUAGCCAAGUUGCUUUCAGGCGCAAGACUUUAAUUUAUCACUACGAAAUGUUGAGAUCGGGCGUUCGACUCGCCCCCGUGAGAUUUUUUCCUCGAGCAA [G19C A23C C56G G85U]
CUCUCGGUAGCCAAGUUGCUUUAAGGCGCACGACUUUAAUUUAUCACUACGAAAUCUUGCGAUCGGGCGUUCGACUCGCCCCCGGCAGAUUUUUUCCUCGAGCAA [G19C A31C A60C G86C]
CUCUCGGUAGCCAAGUUGAUUUAAGUCGCAAGACUUUAAUUUAUCACUACGAAAUCUUGAGACCGGGCGUUCGACUCGCCCCCGGGAGAUUUUUUCCUCGAGCAA [G19A G26U U63C]
CUCUCGGUAGCCAAGUUGAUUUAAGGCCCAAGACUUUAAUUUAUCACUACGAAAUCUUGAGAACGGGCGUUCGACUCGCCCCCGGGAGAUUUUUUCCUCGAGCAA [G19A G28C U63A]
CUCUCGGUAGCCAAGUUGCUUUAAGGCGCAAGACUUUAAUUUAUCACUACGAAAUCUUGAGUUCGGGCGUUCGACUCGCCCCCGGGAGAUUUUUUCCUCGAGCAA [G19C A62U]
CUCUCGGUAGCCAAGUUGAUUUAAGGCGCAAGACUUUAAUUUAUCACUACGAAAUCUUGAGAUCGGGCGUUCGACUCGCUCCCGGGAGAUUUUUUCCUCGAGCAA [G19A C80U]
CUCUCGGUAGCCAAGUUGCUUUAAGGCGCAAGACUUUAAUUUAUCACUACGAAAUUCUGAGAUCGGGCGUUCGACUCGCCCCCGGGAGAUUUUUUCCUCGAGCAA [G19C C56U U57C]
CUCUCGGUAGCCAAGUUGCUUUAAGGCGUAAGACUUUAAUUUAUCACUACGAAAUCUUGAGAUCGGGCGUUCGACUCGCCCCCGGUAGAUUUUUUCCUCGAGCAA [G19C C29U G86U]
CUCUCGGUAGCCAAGUUGAUUUAAGGCGCAAGACUUUAAUUUAUCACUACGAAAUCCAGAGAUCGGGCGCUCGACUCGCCCCCGGGAGAUUUUUUCCUCGAGCAA [G19A U57C U58A U70C]
CUCUCGGUAGCCAAGUUGAUUUAAGGCGCAAGACUUUAAUUUAUCACUACGAAAUCUUGAGACCGGGCGUUCGACUCGCCCACGGGAGAUUUUUUCCUCGAGCAA [G19A U63C C82A]
CUCUCGGUAGCCAAGUUGAUUUAAGGCGCAAGACUUUAAUUUAUCACUACGAAAUCUUGAGAUCGGGCGUUAGACUCGCCCCCGGGAGAUUUUUUCCUCGAGCAA [G19A C72A]
CUCUCGGUAGCCAAGUUGAUUUAAGGCGCAAGAAUUUAAUUUAUCACUACGAAAUCUAGAGAUCGGGCGUUCGACUCGCCCCCGGGAGAUUUUUUCCUCGAGCAA [G19A C34A U58A]
CUCUCGGUAGCCAAGUUGCUUUAAGGCGCAAGACUUUAAUUUAUCACUACGAAAUCUUGAGAUCGGGCGUUCGAAUCGCCGCCGGGAGAUUUUUUCCUCGAGCAA [G19C C75A C81G]
CUCUCGGUAGCCAAGUUGCUUUAAGGCGCAAGACUUUAAUUUAUCACUACGAAAUAUUGAGAUCGGGCCUUCGACUCGGCCCCGGGAGAUUUUUUCCUCGAGCAA [G19C C56A G69C C79G]
CUCUCGGUAGCCAAGUUGCUUUAAGGCGCUAGACUUUAAUUUAUCACUACGAAAUCUUGAGAUCGGGCGUUCGACUCGCCCCCGGGAGAUUUUUUCCUCGAGCAA [G19C A30U]
CUCUCGGUAGCCAAGUUGCUUUAAGGCGCAAGAGUUUAAUUUAUCACUACGAAAUCUUGCAAUCGGGCGUUCGACUCGCCGCCGGGAGAUUUUUUCCUCGAGCAA [G19C C34G A60C G61A C81G]
CUCUCGGUAGCCAAGUUGCUUUAAGGCGCAAGACUUUAAUUUAUCACUACGAAAUCUUGAGAUCGGGCGUUCGACUCGCACCCGGGAGAUUUUUUCCUCGAGCAA [G19C C80A]
CUCUCGGUAGCCAAGUUGAUAUAAGGCGCAAGACUUUAAUUUAUCACUACGAAAUCUUGAGAUCGGGCGUUCGACUCGCCCCCGGGAGAUUUUUUCCUCGAGCAA [G19A U21A]
